Measured values as given in paper PMC6212790.
Some of the results follow. At the low end of the ranking the order means little.

Target: T1, GST-Rok (full length) (UniProt O34857)
T1 sequence: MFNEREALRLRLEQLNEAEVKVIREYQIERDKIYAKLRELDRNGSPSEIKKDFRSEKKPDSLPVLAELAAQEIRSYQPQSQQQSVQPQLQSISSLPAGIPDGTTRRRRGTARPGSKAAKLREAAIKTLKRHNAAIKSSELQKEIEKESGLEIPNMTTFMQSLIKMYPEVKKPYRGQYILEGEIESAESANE
Assay: protein binding microarray;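 also: rank score from −0.5 (least bound) to 0.5 (best bound)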
Settings: Rok is a gene silencer of Bacillus subtilis; high values mean tight binding; most listed sequences are background and not binding sites; double strand, one strand shown

Row | Sequence | binding signal
1 | ACCTGAGC | -0.221 E-score
2 | CGGCACAC | -0.127 E-score
3 | CGCAAGGA | -0.217 E-score
4 | TACCTTAA | 0.233 E-score
5 | CAAACTGA | -0.0599 E-score
6 | AATCCTTA | 0.129 E-score
7 | GCCGCTTA | -0.147 E-score
8 | GGAGGAGA | -0.27 E-score
9 | ATGCGCCA | -0.131 E-score
10 | AATATTAC | 0.239 E-score
11 | GACGGTGA | -0.0863 E-score
12 | ATGTCGCC | -0.202 E-score
13 | CCCTACAG | -0.166 E-score
14 | ATGGCCAA | 0.134 E-score
15 | GCGGGAGC | -0.392 E-score
16 | ACGATAGA | 0.259 E-score
17 | ATCGGTCA | 0.0381 E-score
18 | GGCCCAAC | -0.258 E-score
19 | AATTAAAG | 0.192 E-score
20 | TATATGGA | 0.343 E-score
21 | GCCTGGCC | -0.314 E-score
22 | CAGGGGCA | -0.417 E-score
23 | ACCCATTG | -0.0408 E-score
24 | GAGATTCC | 0.0123 E-score
25 | ACGCGGCT | -0.251 E-score

Row | Sequence | binding signal
26 | AAATCCCA | 0.045 E-score
27 | TACTACCA | 0.386 E-score
28 | CTTGGCTC | -0.0993 E-score
29 | GCCATCTA | 0.0099 E-score
30 | CGCGATCC | -0.214 E-score
31 | ATTGTTAC | 0.15 E-score
32 | ATCAACAC | 0.0501 E-score
33 | CCCGAGGA | -0.13 E-score
34 | ATGTTAAT | 0.263 E-score
35 | CTATCTAC | 0.433 E-score
36 | CGTCCTGA | -0.279 E-score
37 | CAACCATA | 0.128 E-score
38 | CTCGCCCC | -0.14 E-score
39 | AAACATGG | -0.0047 E-score
40 | CATATAGG | 0.175 E-score
41 | AGAGCCTC | -0.311 E-score
42 | GTGTCTAA | 0.102 E-score
43 | AAAACCGA | -0.0124 E-score
44 | GCGGCAAA | -0.0419 E-score
45 | AGCATGGA | 0.0226 E-score
46 | ATGAGGTA | 0.18 E-score
47 | GTGAGGGA | -0.139 E-score
48 | TCACTTCA | -0.0825 E-score
49 | CCGTATAG | 0.0256 E-score
50 | TGAGGCCA | -0.363 E-score

Row | Sequence | binding signal
51 | TATGATCA | 0.168 E-score
52 | GCACCAGA | -0.107 E-score
53 | CCACCCGG | -0.16 E-score
54 | ATCGAACA | 0.029 E-score
55 | TCCTCAAA | -0.206 E-score
56 | AGGTGACC | -0.41 E-score
57 | CTGTCTTA | 0.115 E-score
58 | ATCTTGAG | -0.0957 E-score
59 | AAATGGGG | -0.23 E-score
60 | CAAGTAAG | -0.0652 E-score
61 | GAGAGACC | -0.228 E-score
62 | CCTAACGA | -0.117 E-score
63 | AATACGAT | 0.21 E-score
64 | CTCGACGC | -0.142 E-score
65 | CGAGTGGA | -0.175 E-score
66 | ACACCGCT | -0.047 E-score
67 | CGACCCAA | -0.139 E-score
68 | CCATAATC | 0.0524 E-score
69 | ACTCTGTG | -0.129 E-score
70 | AACTCCAC | -0.0379 E-score
71 | AGAGGTAG | 0.172 E-score
72 | AGTGCTGC | -0.288 E-score
73 | CACTGACC | -0.0773 E-score
74 | AAGTCTTA | 0.0533 E-score
75 | CCTAGCTA | 0.107 E-score

Row | Sequence | binding signal
76 | AGCCTAAT | 0.00339 E-score
77 | AACGATAC | 0.108 E-score
78 | GTCAAAAA | -0.156 E-score
79 | CCAGGGCG | -0.372 E-score
80 | AGCCGGAC | -0.133 E-score
81 | AATAGGGC | -0.052 E-score
82 | GCTTCCCC | -0.37 E-score
83 | CTACCTAG | 0.235 E-score
84 | GACAATGA | -0.0569 E-score
85 | ATACTTGG | 0.0534 E-score
86 | AACTGGAC | 0.0436 E-score
87 | AACAACCC | -0.247 E-score
88 | CCGAGGAC | -0.13 E-score
89 | CGGGTAAG | -0.161 E-score
90 | GAAAGAGA | -0.203 E-score
91 | CCTACCAC | 0.224 E-score
92 | GACACCGA | -0.207 E-score
93 | AAAGTAAG | 0.153 E-score
94 | GAAGCCAA | -0.0136 E-score
95 | AGACGATC | -0.0742 E-score
96 | CAGCTCTC | -0.173 E-score
97 | TATGACAA | 0.133 E-score
98 | TTGACAAA | 0.122 E-score
99 | ACCTGGAT | -0.0366 E-score
100 | CAATGAGA | -0.124 E-score

Row | Sequence | binding signal
101 | AATAGCAG | 0.123 E-score
102 | CAGGAGAA | -0.111 E-score
103 | ATAAATAG | 0.322 E-score
104 | GCGCCTAC | -0.102 E-score
105 | ATACAAAC | 0.354 E-score
106 | ATCTTTAG | -0.0699 E-score
107 | AACTCCAT | 0.0879 E-score
108 | GTCATGAA | -0.012 E-score
109 | GTCCTCGA | -0.00676 E-score
110 | CTGTGATA | 0.264 E-score
111 | CCTACAAG | 0.0283 E-score
112 | AGACTAGA | 0.173 E-score
113 | GGGCATAC | -0.057 E-score
114 | CAGCTGCC | -0.263 E-score
115 | CTGGACTA | 0.0592 E-score
116 | AACCGACA | -0.0855 E-score
117 | ACCCCCAT | -0.281 E-score
118 | CAAGCAGG | -0.207 E-score
119 | ACGATCTA | 0.193 E-score
120 | AACGTCGA | -0.0718 E-score
121 | CGAAGAAA | 0.195 E-score
122 | AACAGACG | -0.0469 E-score
123 | ACATGCGA | -0.0645 E-score
124 | CTACTGAC | 0.22 E-score
125 | CTAGTGGC | -0.0795 E-score

Row | Sequence | binding signal
126 | GACTGCGC | -0.251 E-score
127 | CATACGGA | 0.101 E-score
128 | CATCGAAG | -0.141 E-score
129 | ATAACTCG | 0.248 E-score
130 | CAGTTTGC | -0.0541 E-score
131 | CAAGGCGG | -0.32 E-score
132 | CGGCCTGC | -0.384 E-score
133 | ATCAGCGG | -0.175 E-score
134 | AAAGGCCT | -0.207 E-score
135 | AGGCGTAA | -0.0798 E-score
136 | GTAGACTA | 0.241 E-score
137 | CCCAAACA | -0.153 E-score
138 | CAAATAAA | 0.137 E-score
139 | CTCAATGA | -0.183 E-score
140 | ATCCTCCA | -0.0743 E-score
141 | AGCATCCT | -0.213 E-score
142 | CGTCCACG | -0.249 E-score
143 | CGGCGGAC | -0.326 E-score
144 | GAACGAAC | 0.0416 E-score
145 | GATCGGCA | -0.0537 E-score
146 | ATAGTCCG | -0.0334 E-score
147 | AAGGACAG | -0.267 E-score
148 | CTGTCGCA | -0.0256 E-score
149 | GTTTCTCA | 0.106 E-score
150 | ACATAAAT | 0.161 E-score

Row | Sequence | binding signal
151 | ACCTGCCG | -0.195 E-score
152 | CATAGACG | -0.0587 E-score
153 | CAGTCCAC | -0.234 E-score
154 | GGTTATCA | 0.00708 E-score
155 | AACATCTC | -0.0565 E-score
156 | ACTGCCAC | -0.0928 E-score
157 | GGCCGGTA | 0.00749 E-score
158 | AAATTGTA | 0.236 E-score
159 | CCCGCGAG | -0.31 E-score
160 | AATATCCC | 0.001 E-score
161 | AGTGTGTG | -0.116 E-score
162 | ATTGTCAG | 0.0457 E-score
163 | ACATTGTG | 0.0964 E-score
164 | ACGTCCAC | -0.245 E-score
165 | CGTGTACA | 0.0725 E-score
166 | ATGTGATA | 0.214 E-score
167 | AAAAGATG | -0.2 E-score
168 | AACTTTGC | 0.101 E-score
169 | CGCTTGAG | -0.15 E-score
170 | CCATCGCC | -0.123 E-score
171 | CACTTGAC | -0.0272 E-score
172 | GATCTAAC | 0.12 E-score
173 | AAAATTAG | 0.198 E-score
174 | CGGTGGAG | -0.216 E-score
175 | GGGTCGTA | -0.203 E-score

Row | Sequence | binding signal
176 | CAACTTCC | -0.033 E-score
177 | GCCTAAAA | -0.232 E-score
178 | ACCACTAC | 0.207 E-score
179 | ATGTAAAG | 0.221 E-score
180 | CTACCACA | 0.272 E-score
181 | CGTTGGAA | -0.145 E-score
182 | GAACTAGC | 0.176 E-score
183 | ACCTATTG | 0.182 E-score
184 | ATGGCTTA | 0.0565 E-score
185 | CCCTTTCG | -0.336 E-score
186 | ACCAAGGC | -0.25 E-score
187 | CAGACATG | -0.129 E-score
188 | CAGTTGAC | 0.17 E-score
189 | ATGCCACC | -0.16 E-score
190 | ACTGTGGC | -0.128 E-score
191 | CCCTAATC | -0.127 E-score
192 | CAATCCAC | -0.149 E-score
193 | AGCCTACA | 0.0088 E-score
194 | GGATAGGA | 0.0101 E-score
195 | TGACATCA | -0.0354 E-score
196 | GGCCTCCA | -0.321 E-score
197 | AAACCGTC | 0.0453 E-score
198 | AAAGCCAG | -0.172 E-score
199 | GTAGCACA | 0.19 E-score
200 | CGTTTAAA | -0.098 E-score

Row | Sequence | binding signal
201 | GACAGTGC | -0.283 E-score
202 | AACGCTCT | -0.196 E-score
203 | CGCGTTCA | 0.0173 E-score
204 | CTTGCTTC | -0.22 E-score
205 | GGGCGGAC | -0.381 E-score
206 | AACGTCCA | -0.291 E-score
207 | ACGAATAA | 0.0598 E-score
208 | AAAGACGA | 0.109 E-score
209 | GAACGTTC | -0.0316 E-score
210 | CGACTGCC | -0.213 E-score
211 | CGGGCTGC | -0.227 E-score
212 | GGCGTACC | -0.127 E-score
213 | CTCTCAGC | -0.189 E-score
214 | ACTCTCTA | -0.0619 E-score
215 | CGGATGAG | -0.112 E-score
216 | ACCGATAC | 0.117 E-score
217 | CTGAGTGA | -0.0653 E-score
218 | GCAATGTA | 0.23 E-score
219 | GAGCAGAC | 0.00267 E-score
